Data: patent US11542275B2, “Substituted imidazolidin-2-one derivatives as PRMT5 inhibitors” (Aurigene Discovery Technologies Limited, priority 2018, dated 2023)

Test system: Z138 cells
Assay: Z138 cell proliferation assay (XTT)
Type: cell-based
Conditions: Homo sapiens, Z-138, 168 h, 7 day treatment, 9-point dose response starting with 10 μM, XTT read at 465 nm
Protocol: Z138 cells were seeded in a 96-well round-bottom plate and treated with varying concentration of compound. The final DMSO concentration was maintained at 0.05%. The selected compounds of present invention were screened in a 9-point dose response format starting with 10 μM and 1/3rd serial dilution. On the 4th day, cells were spun down and media was replaced while maintaining the initial compound concentration in each well. At the end of the 7th day, cells were spun down and media was aspirated. 50 µL of XTT containing media was added to the wells. The plates were read using the M3 spectrophotometer at 465 nm. GI50 values were calculated by fitting the dose response data to sigmoidal curve fitting equation using GraphPad Prism software V7.
The compounds were screened in the above mentioned assay procedures for determining IC50 and GI50 values in inhibiting PRMT5.

Structure (SMILES) | GI50 [nM]
CN(C)S(=O)(=O)C1CCN(c2ccc(CN3CCN(C[C@H](O)CN4CCc5ccccc5C4)C3=O)nc2)CC1 [Compound 15, (R)-1-(6-((3-(3-(3,4-dihydroisoquinolin-2(1H)-yl)-2-hydroxypropyl)-2-oxoimidazolidin-1-yl)methyl)pyridin-3-yl)-N,N-dimethylpiperidine-4-sulfonamide] | 100 to 300
CC(C)(C(=O)O)C1CCN(c2ccc(CN3CCN(C[C@H](O)CN4CCc5ccccc5C4)C3=O)nc2)CC1 [Compound 14, (R)-2-(1-(6-((3-(3-(3,4-dihydroisoquinolin-2(1H)-yl)-2-hydroxypropyl)-2-oxoimidazolidin-1-yl)methyl)pyridin-3-yl)piperidin-4-yl)-2-methylpropanoic acid] | > 300
CC(=O)N1CCN(c2ccc(CN3CCN(CC(O)CN4CCn5nccc5C4)C3=O)nc2)CC1 (centres unmarked) [Compound 85, 1-((5-(4-acetylpiperazin-1-yl)pyridin-2-yl)methyl)-3-(3-(6,7-dihydropyrazolo[1,5-a]pyrazin-5(4H)-yl)-2-hydroxypropyl)imidazolidin-2-one] | > 300
O=C1N(Cc2ccc(N3C4COCC3C4)cn2)CCN1C[C@H](O)CN1CCc2ccccc2C1 [Compound 29, 1-((5-(3-oxa-6-azabicyclo[3.1.1]heptan-6-yl)pyridin-2-yl)methyl)-3-((R)-3-(3,4-dihydroisoquinolin-2(1H)-yl)-2-hydroxypropyl)imidazolidin-2-one] | 100 to 300
O=C1N(Cc2ccc(N3CCOCC3)cn2)CCN1C[C@H](O)CN1CCc2ccccc2C1 [Compound 4, (R)-1-(3-(3,4-dihydroisoquinolin-2(1H)-yl)-2-hydroxypropyl)-3-((5-morpholinopyridin-2-yl)methyl)imidazolidin-2-one] | 100 to 300
CC(=O)N1CCC(c2ccc(CN3CCN(C[C@H](O)CN4CCc5ccccc5C4)C3=O)nc2)CC1 [Compound 33, (R)-1-((5-(1-acetylpiperidin-4-yl)pyridin-2-yl)methyl)-3-(3-(3,4-dihydroisoquinolin-2(1H)-yl)-2-hydroxypropyl)imidazolidin-2-one] | < 100
CS(=O)(=O)N1CCC(c2ccc(CN3CCN(C[C@H](O)CN4CCc5ccccc5C4)C3=O)nc2)CC1 [Compound 43, (R)-1-(3-(3,4-dihydroisoquinolin-2(1H)-yl)-2-hydroxypropyl)-3-((5-(1-(methylsulfonyl)piperidin-4-yl)pyridin-2-yl)methyl)imidazolidin-2-one] | < 100
N#CC1CCN(c2cnc(CN3CCN(C[C@H](O)CN4CCc5ccccc5C4)C3=O)cn2)CC1 [Compound 10, (R)-1-(5-((3-(3-(3,4-dihydroisoquinolin-2(1H)-yl)-2-hydroxypropyl)-2-oxoimidazolidin-1-yl)methyl)pyrazin-2-yl)piperidine-4-carbonitrile] | 100 to 300
O=C1N(Cc2ncc(N3C4CCC3COC4)cc2F)CCN1C[C@H](O)CN1CCc2ccccc2C1 [Compound 30, 1-((5-(3-oxa-8-azabicyclo[3.2.1]octan-8-yl)-3-fluoropyridin-2-yl)methyl)-3-((R)-3-(3,4-dihydroisoquinolin-2(1H)-yl)-2-hydroxypropyl)imidazolidin-2-one] | < 100
O=C1N(Cc2cnc(N3C4CCC3COC4)cn2)CCN1C[C@H](O)CN1CCc2ccccc2C1 [Compound 24, 1-((5-(3-oxa-8-azabicyclo[3.2.1]octan-8-yl)pyrazin-2-yl)methyl)-3-((R)-3-(3,4-dihydroisoquinolin-2(1H)-yl)-2-hydroxypropyl)imidazolidin-2-one] | > 300
CC(=O)N1CCC(c2ccc(CN3CCN(C[C@H](O)CN4CCc5ccccc5C4)C3=O)nn2)CC1 [Compound 38, (R)-1-((6-(1-acetylpiperidin-4-yl)pyridazin-3-yl)methyl)-3-(3-(3,4-dihydroisoquinolin-2(1H)-yl)-2-hydroxypropyl)imidazolidin-2-one] | < 100
CC(=O)N1CCC(c2ccc(CN3CCN(C[C@@H](O)CN4CCc5ccccc5C4)C3=O)nc2)CC1 [Compound 45, (S)-1-((5-(1-acetylpiperidin-4-yl)pyridin-2-yl)methyl)-3-(3-(3,4-dihydroisoquinolin-2(1H)-yl)-2-hydroxypropyl)imidazolidin-2-one] | 100 to 300
CC(=O)N1CCN(c2ccc(CN3CCN(C[C@H](O)CN4CCc5ccccc5C4)C3=O)nc2)C(C)C1 (stereo partly drawn) [Compound 21, 1-((5-(4-acetyl-2-methylpiperazin-1-yl)pyridin-2-yl)methyl)-3-((R)-3-(3,4-dihydroisoquinolin-2(1H)-yl)-2-hydroxypropyl)imidazolidin-2-one] | 100 to 300
O=C1N(Cc2cnc(-c3cccnc3)cn2)CCN1C[C@H](O)CN1CCc2ccccc2C1 [Compound 37, (R)-1-(3-(3,4-dihydroisoquinolin-2(1H)-yl)-2-hydroxypropyl)-3-((5-(pyridin-3-yl)pyrazin-2-yl)methyl)imidazolidin-2-one] | > 300
CCC(=O)N1CCC(c2ccc(CN3CCN(C[C@H](O)CN4CCc5ccccc5C4)C3=O)nc2)CC1 [Compound 44, (R)-1-(3-(3,4-dihydroisoquinolin-2(1H)-yl)-2-hydroxypropyl)-3-((5-(1-propionylpiperidin-4-yl)pyridin-2-yl)methyl)imidazolidin-2-one] | < 100
O=C1N(Cc2ccc(N3CC4(COC4)C3)cn2)CCN1C[C@H](O)CN1CCc2ccccc2C1 [Compound 5, (R)-1-((5-(2-oxa-6-azaspiro[3.3]heptan-6-yl)pyridin-2-yl)methyl)-3-(3-(3,4-dihydroisoquinolin-2(1H)-yl)-2-hydroxypropyl)imidazolidin-2-one] | > 300
O=C1N(Cc2ccc(C3CCCOC3)cn2)CCN1C[C@H](O)CN1CCc2ccccc2C1 (stereo partly drawn) [Compound 77, 1-((R)-3-(3,4-dihydroisoquinolin-2(1H)-yl)-2-hydroxypropyl)-3-((5-(tetrahydro-2H-pyran-3-yl)pyridin-2-yl)methyl)imidazolidin-2-one] | 100 to 300
CCOC(=O)C(C)(C)C1CCN(c2ccc(CN3CCN(C[C@H](O)CN4CCc5ccccc5C4)C3=O)nc2)CC1 [Compound 13, ethyl(R)-2-(1-(6-((3-(3-(3,4-dihydroisoquinolin-2(1H)-yl)-2-hydroxypropyl)-2-oxoimidazolidin-1-yl)methyl)pyridin-3-yl)piperidin-4-yl)-2-methylpropanoate] | 100 to 300
CC(=O)N1CCC(c2cnc(CN3CCN(C[C@H](O)CN4CCc5ccccc5C4)C3=O)cn2)CC1 [Compound 34, (R)-1-((5-(1-acetylpiperidin-4-yl)pyrazin-2-yl)methyl)-3-(3-(3,4-dihydroisoquinolin-2(1H)-yl)-2-hydroxypropyl)imidazolidin-2-one] | < 100
O=C(C1CC1)N1CCC(c2cnc(CN3CCN(C[C@H](O)CN4CCc5ccccc5C4)C3=O)cn2)CC1 [Compound 41, (R)-1-((5-(1-(cyclopropanecarbonyl)piperidin-4-yl)pyrazin-2-yl)methyl)-3-(3-(3,4-dihydroisoquinolin-2(1H)-yl)-2-hydroxypropyl)imidazolidin-2-one] | < 100
